Hit rate of the full screen: of about 44,000 compounds, about 340 (0.77%) were called active. The inconclusive results got no clear call from the source; some entries with a clear call stand among them for comparison. Calls follow the shape of the dose curve; as a rule, active = well fitted inhibition curve with a large enough effect; inconclusive = small, poorly fitted or top-dose-only effect; inactive = flat fitted curve, though single readings scatter. Potencies of inconclusive entries are left out as doubtful fits.
assay: Acumen qHTS Assay for Inhibitors of the mTORC1 Signaling Pathway in MEF (Tsc2-/-, p53-/-) Cells: Sytravon; details: phospho-rpS6 immunofluorescence/PI, 24 h; series mostly up to 38.3 µM; also: nearly all actives have a fitted effect of over 50% in size
Procedure, shortened: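 Plate MEFs (Tsc2-/-, p53-/-, empty vector) in DMEM/10% FBS; after 24 h add compound, incubate 24 h at 37 degree Celsius; fix in PFA/TX-100, block, stain phospho-rpS6 and 10 uM PI; scan at 488 nm; report % positive cells.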
Potency is read from the fitted curve at half-maximal effect; tags tell the direction and shape of the fitted curve.

**Q.** Which Potency does the source give for `Cc1c(C(=O)OCCOc2ccccc2)[nH]c2c1C(=O)CC(c1ccccc1Cl)C2` (stereo not drawn) here?
**A.** active: 1.31 µM

**Q.** Which Potency does the source give for `Cc1ccc(-n2ncc3c(N4CCCCCC4)ncnc32)cc1C` here?
**A.** inactive

**Q.** With `CNS(=O)(=O)c1cn(CC(=O)N2CCN(c3cccc(Cl)c3)CC2)cc1S(=O)(=O)NC` as the compound, how does the Potency read?
**A.** inconclusive [falling, partial curve, poor fit]

**Q.** For `COC(=O)c1ccc(CN(Cc2ccc(OC)c(OC)c2)S(=O)(=O)c2cc(C(=O)Nc3cccc(C)c3)ccc2F)cc1`, which Potency is on record?
**A.** inactive

**Q.** Which Potency does the source give for `COc1ccccc1CNc1ccc(-c2nc(-c3cccc(C)c3)no2)cc1[N+](=O)[O-]` here?
**A.** inactive

**Q.** Which Potency does the source give for `CC1C(=O)N2CCCc3cc(S(=O)(=O)Nc4ccc(Br)cc4F)cc1c32` (stereo not drawn) here?
**A.** active: 13.1 µM

**Q.** With `CCOc1cc(-c2nnc(SCC(=O)NCc3ccc(C)cc3)nc2-c2ccc(OC)c(OCC)c2)ccc1OC` as the compound, how does the Potency read?
**A.** inactive

**Q.** With `CCC(=O)N1CCc2cc(S(=O)(=O)NC(Cc3ccccc3)C(=O)NCc3ccc(F)cc3)ccc21` (stereo not drawn) as the compound, how does the Potency read?
**A.** inconclusive [falling, single point]

**Q.** With `CCOc1ccc(NC(=O)C2CCCN(S(=O)(=O)c3ccc(Br)s3)C2)cc1` (stereo not drawn) as the compound, how does the Potency read?
**A.** inconclusive [falling, partial curve, poor fit]

**Q.** With `CC(CNC(=O)c1ccc2nc(CCc3ccccc3)oc2c1)c1ccccc1` (stereo not drawn) as the compound, how does the Potency read?
**A.** inconclusive [falling, single point]

**Q.** For `CCN(CC)C(=O)Cn1c(=O)n(CCCCCC(=O)Nc2ccccc2)c(=O)c2sccc21`, which Potency is on record?
**A.** inconclusive [activator, partial curve, poor fit]

**Q.** Which Potency does the source give for `CCN1CCN(c2cc(C)c3cc(NC(=O)c4cc(OC)c(OC)c(OC)c4)ccc3n2)CC1` here?
**A.** inconclusive [falling, single point]

**Q.** Which Potency does the source give for `CCc1ccc2oc(C(=O)N(Cc3cccc(Cl)c3)Cc3ccco3)c(C)c2c1` here?
**A.** inconclusive [falling, single point]

**Q.** Which Potency does the source give for `COc1ccc(-c2nc3ccccc3o2)cc1NC(=O)COc1c(C)cc(Cl)cc1Cl` here?
**A.** inconclusive [falling, partial curve, poor fit]

**Q.** With `CCc1ccc(-c2cc(C)no2)cc1S(=O)(=O)NCc1ccc(OC)cc1` as the compound, how does the Potency read?
**A.** inconclusive [falling, full curve, poor fit]

**Q.** With `COc1cc(NC(=O)c2noc3c2CC(C(C)(C)C)CC3)cc(OC)c1OC` (stereo not drawn) as the compound, how does the Potency read?
**A.** inconclusive [falling, partial curve, poor fit]

**Q.** For `Cn1c(Oc2cccc(Cl)c2)nc2c1c(=O)n(Cc1ccccc1Cl)c(=O)n2C`, which Potency is on record?
**A.** inconclusive [falling, single point]

**Q.** For `CCOc1cc(C(=O)Nc2ccc3nc(N4CCN(C)CC4)cc(C)c3c2)cc(OCC)c1OCC`, which Potency is on record?
**A.** inconclusive [falling, full curve, poor fit]

**Q.** Which Potency does the source give for `COc1ccc2nc(NC(=O)c3nc(S(=O)(=O)Cc4ccc(C)cc4)ncc3Cl)sc2c1` here?
**A.** inconclusive [falling, single point]

**Q.** Which Potency does the source give for `CCOc1ccc(S(=O)(=O)N(CC(=O)Nc2ccc(OC)c(Cl)c2)c2ccccc2)cc1` here?
**A.** inconclusive [falling, partial curve]

**Q.** Which Potency does the source give for `COc1cc(-c2nc(-c3ccccc3)c(-c3ccc(Br)cc3)[nH]2)cc(OC)c1O` here?
**A.** inconclusive [falling, single point]

**Q.** For `CCOC(=O)c1ccccc1NC(=O)CSc1cn(CC(=O)N2CCCCCC2)c2ccccc12`, which Potency is on record?
**A.** inactive

**Q.** For `COc1ccc(NC(=O)c2ccco2)cc1NC(=O)c1cc(Br)ccc1Cl`, which Potency is on record?
**A.** inactive

**Q.** With `COc1c(C)cccc1C(=O)Nc1cccc2ccc(C)nc12` as the compound, how does the Potency read?
**A.** inconclusive [falling, single point]

**Q.** For `COc1ccc(Cn2ccn(Cc3cccc(OC)c3)c(=O)c2=O)cc1`, which Potency is on record?
**A.** inconclusive [falling, single point]

**Q.** For `Cc1ccc(Cl)cc1N1CCN(C(=O)c2ccc3c(c2)N(Cc2ccc(F)cc2)CCS3)CC1`, which Potency is on record?
**A.** inconclusive [falling, full curve, poor fit]

**Q.** For `Cc1cc(=O)n(CC(=O)N2CCN(c3ccccc3F)CC2)c2c1c(C)nn2C`, which Potency is on record?
**A.** inconclusive [falling, single point]

**Q.** Which Potency does the source give for `COc1ccc(-c2cc(C(C)=O)c(C)n2CCC(=O)Nc2cc(Cl)ccc2C)cc1` here?
**A.** inactive

**Q.** With `Cn1nc(C(=O)Nc2ccc(F)c(Cl)c2)c2c1-c1ccccc1S(=O)(=O)C2` as the compound, how does the Potency read?
**A.** inconclusive [falling, partial curve, poor fit]

**Q.** With `CCc1ccc(CNC(=O)C2CCN(c3nn4cc(-c5ccc(F)cc5)nc4s3)CC2)cc1` as the compound, how does the Potency read?
**A.** inactive

**Q.** Which Potency does the source give for `CCOC(=O)C1CCN(C(c2cccc(F)c2)c2c(O)cc(C)n(CCOC)c2=O)CC1` (stereo not drawn) here?
**A.** inactive

**Q.** Which Potency does the source give for `CCOC(=O)C1=C(C)N=C2SCCC(=O)N2C1c1ccc(OCc2ccccc2)cc1` (stereo not drawn) here?
**A.** inconclusive [falling, full curve, poor fit]

**Q.** With `CCCCN(CCCNC(=O)c1cc(Nc2ccc(OC)c(OC)c2)nc2ccccc12)Cc1ccccc1` as the compound, how does the Potency read?
**A.** inconclusive [falling, single point]

**Q.** With `CC(C)(C)c1ccc(OCC(=O)N2CCC(c3nc4ccccc4s3)CC2)cc1` as the compound, how does the Potency read?
**A.** inactive

**Q.** With `COc1ccc(NC(=O)c2cc3c(=O)n(Cc4ccco4)ccc3nc2C)cc1` as the compound, how does the Potency read?
**A.** inconclusive [falling, partial curve, poor fit]

**Q.** For `CCOC(=O)c1ccc(Nc2nc3ccccc3nc2NS(=O)(=O)c2ccc(Cl)cc2)cc1`, which Potency is on record?
**A.** inconclusive [activator, partial curve, poor fit]

**Q.** Which Potency does the source give for `Cc1ccc(-c2c(CN3CCN(c4cccc(C(F)(F)F)c4)CC3)csc2C)cc1` here?
**A.** inactive

**Q.** Which Potency does the source give for `COc1cc(NC(=O)c2ccc(C)cc2)ccc1NC(=O)c1cc2ccccc2o1` here?
**A.** inactive

**Q.** For `CCSc1nnc2n(-c3cccc(C)c3)c(=O)c3c4c(sc3n12)CCCC4`, which Potency is on record?
**A.** inconclusive [falling, single point]

**Q.** For `Cc1ccc(C(=O)Nc2ccc(-c3cn4cccnc4n3)cc2)cc1C`, which Potency is on record?
**A.** inconclusive [falling, single point]

**Q.** Which Potency does the source give for `O=C(NCC1CCN(Cc2cccc(Cl)c2)CC1)Nc1cc(Cl)ccc1Cl` here?
**A.** inconclusive [falling, single point]

**Q.** Which Potency does the source give for `COc1ccc(-c2cc3ccc(O)c(CN4CCOCC4)c3oc2=O)cc1OC` here?
**A.** inconclusive [falling, partial curve, poor fit]

**Q.** Which Potency does the source give for `CCOc1ccccc1C(=O)Nc1ccc2nc(N(CC)CC)cc(C)c2c1` here?
**A.** inactive

**Q.** With `CCOc1ccc(CNS(=O)(=O)c2cc3c(cc2C)NC(=O)CO3)cc1OC` as the compound, how does the Potency read?
**A.** inactive

**Q.** For `COc1ccccc1N1CCN(CCCNC(=O)c2cnn(-c3ccccc3)c2C2CCN(C(=O)OC(C)(C)C)CC2)CC1`, which Potency is on record?
**A.** inconclusive [falling, single point]

**Q.** For `CCc1ccc(-n2c(Cc3ccccc3)nnc2SCc2nc(-c3cccs3)no2)cc1`, which Potency is on record?
**A.** inconclusive [falling, partial curve, poor fit]

**Q.** For `Cc1ccc(/C=C/c2onc(C)c2S(=O)(=O)N2CCC(C(=O)NCC(C)c3ccccc3)CC2)cc1` (stereo not drawn), which Potency is on record?
**A.** inactive

**Q.** For `CCCCCn1c(-c2ccc(OC)c(OC)c2)nc2ccccc21`, which Potency is on record?
**A.** inconclusive [falling, single point]

**Q.** Which Potency does the source give for `CN(C)CCN(Cc1ccco1)C(=O)c1oc2ccccc2c1NC(=O)c1ccccc1` here?
**A.** inconclusive [falling, single point]

**Q.** With `COc1cc(C2c3c(-c4cc(C)ccc4O)n[nH]c3C(=O)N2CCCO)ccc1OCCC(C)C` (stereo not drawn) as the compound, how does the Potency read?
**A.** inconclusive [falling, single point]

**Q.** For `COc1ccc(NC(=O)CSc2nc3ccccc3n2Cc2cccc(OC)c2)cc1`, which Potency is on record?
**A.** inconclusive [falling, partial curve]

**Q.** For `Cc1ccc(NC(=O)c2cc(S(=O)(=O)N3CCc4ccccc43)ccc2F)cc1Cl`, which Potency is on record?
**A.** inconclusive [falling, single point]

**Q.** Which Potency does the source give for `Cc1ccc(-c2nc(C)c(CCNS(=O)(=O)c3ccc(F)c(C(F)(F)F)c3)s2)cc1` here?
**A.** inconclusive [falling, partial curve, poor fit]

**Q.** With `Cc1ccc(NC(=O)CSc2nc(-c3ccco3)cc(C(F)(F)F)n2)cc1` as the compound, how does the Potency read?
**A.** inconclusive [falling, full curve]

**Q.** For `CC(C)c1ccc(OC(=O)c2cc(-c3ccccc3)on2)cc1`, which Potency is on record?
**A.** inactive

**Q.** With `CCOc1ccc(C2CC(=O)Nc3c2c(=O)nc(SCc2ccccc2C)n3C)cc1OC` (stereo not drawn) as the compound, how does the Potency read?
**A.** inactive

**Q.** With `Cc1ccc(NC(=O)CSc2nnc3scc(-c4ccccc4)n23)cc1` as the compound, how does the Potency read?
**A.** inconclusive [falling, partial curve, poor fit]

**Q.** For `CCOc1ccc(CN2CCc3nc(Nc4ccc(OC)cc4OC)ncc3C2)cc1`, which Potency is on record?
**A.** inconclusive [activator, single point]

**Q.** With `COc1ccc(CNC(=O)Nc2ccc3c(c2)N(C)C(=O)c2ccccc2S3)cc1` as the compound, how does the Potency read?
**A.** inconclusive [falling, partial curve, poor fit]

**Q.** With `COc1ccc(-c2nnc(SCc3cc(=O)c4cc(C)cc(C)c4[nH]3)n2C)cc1` as the compound, how does the Potency read?
**A.** inconclusive [falling, single point]

**Q.** With `CC(=O)c1cccc(NC(=O)c2nc3ccccc3n(C)c2=O)c1` as the compound, how does the Potency read?
**A.** inactive

**Q.** Which Potency does the source give for `COc1ccc(-c2[nH]c(-c3ccc(O)cc3)nc2-c2ccccc2)cc1` here?
**A.** inconclusive [falling, single point]

**Q.** For `O=C(Cn1c(=O)nc(-c2ccccc2)c2cc(Cl)ccc21)NCCc1ccc(Cl)cc1`, which Potency is on record?
**A.** inconclusive [falling, full curve, poor fit]

Source: PubChem BioAssay AID493208 (National Center for Advancing Translational Sciences (NCATS), 2011)
